# Screen size: about 410,000 compounds; about 6,400 (1.6%) were called active. The inconclusive results got no clear call from the source; some entries with a clear call stand among them for comparison. Calls follow the shape of the dose curve; as a rule, active = well fitted inhibition curve with a large enough effect; inconclusive = small, poorly fitted or top-dose-only effect; inactive = no such curve, though single readings can be large or run the other way. No potency is given beside an inconclusive call; the fits are too rough.
# Target: Glucagon-like peptide 1 receptor (Homo sapiens) (UniProt P43220)
# UniProt P43220, sequence (P43220 whole entry, looked up): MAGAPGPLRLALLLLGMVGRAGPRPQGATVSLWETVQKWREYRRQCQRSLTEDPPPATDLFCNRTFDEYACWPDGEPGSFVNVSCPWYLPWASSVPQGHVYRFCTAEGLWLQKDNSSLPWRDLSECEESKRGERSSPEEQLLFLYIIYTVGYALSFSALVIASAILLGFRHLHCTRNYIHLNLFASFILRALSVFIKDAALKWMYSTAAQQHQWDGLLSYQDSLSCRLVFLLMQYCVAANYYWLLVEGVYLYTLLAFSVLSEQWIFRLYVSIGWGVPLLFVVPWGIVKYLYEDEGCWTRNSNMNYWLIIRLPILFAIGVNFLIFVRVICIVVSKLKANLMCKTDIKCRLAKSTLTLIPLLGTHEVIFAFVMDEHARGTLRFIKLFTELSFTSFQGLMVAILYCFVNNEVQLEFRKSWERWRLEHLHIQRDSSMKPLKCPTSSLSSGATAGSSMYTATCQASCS
# Assay: qHTS of GLP-1 Receptor Inverse Agonists (Inhibition Mode); also: nearly all actives have a fitted effect of over 55% in size
# Settings: HEK293 GLP-1R CRE-luciferase, luminescence, 24 h, GLP-1R form is constitutively active; series mostly up to 38.3 µM
# In short: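 GLP-1R inverse agonism mode: basal reporter luminescence in engineered HEK293 cells measured after one day of compound exposure at 37 deg C, with a 12 min room-temperature detection step.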
# Potency is read from the fitted curve at half-maximal effect; tags tell the direction and shape of the fitted curve.
row,SMILES,Potency
1,CCOc1cc(C(=O)Nc2ccc(S(=O)(=O)Nc3cnc4ccccc4n3)cc2)cc(OCC)c1OCC,"inconclusive [inhibitor, single point]"
2,CCn1cc(C(=O)OCC(=O)Nc2cccc(Cl)c2C)c(=O)c2ccc(C)nc21,inactive
3,CC1(C)Cc2nc3sc4c(=O)n(Cc5ccccc5)cnc4c3cc2CS1,"inconclusive [inhibitor, full curve]"
4,CC(=O)OCc1c(C(F)(F)F)nn(C)c1Sc1ccccc1,inactive
5,CCCc1cc(=O)oc2c(C)c(OCc3nn[nH]n3)ccc12,inactive
6,Clc1ccc(-n2ncc3c(NCc4ccco4)ncnc32)cc1,inactive
7,Cc1ccccc1N=C1NC(=O)CC(c2ccccc2)S1 (stereo not drawn),"inconclusive [inhibitor, single point]"
8,CCc1ccccc1N(C)C(=O)Nc1cn(CC(C)C)c(=O)c2ccccc12,"inconclusive [inhibitor, partial curve, poor fit]"
9,CCOC(=O)c1c(C)[nH]c(C)c1C(=O)CSc1nc2ccccc2c(=O)n1-c1ccc(CC)cc1,active: 10 µM
10,COC(=O)[C@]12CCCCC=C1N(CCC1=CCCCC1)C(=O)[C@H](CC(=O)NCc1cccc3ccccc13)C2,"inconclusive [inhibitor, partial curve, poor fit]"
11,O=C1c2cc(F)ccc2OC2(CCNCC2)C12CC(c1ccccc1)=NO2 (stereo not drawn),"inconclusive [inhibitor, single point]"
12,COc1ccc(N=C2SC(C(=O)Nc3ccc4c(c3)OCO4)CC(=O)N2C)cc1 (stereo not drawn),"inconclusive [inhibitor, single point]"
13,Cc1cc(C)n(-c2ccc(NC(=O)C3CCN(Cc4ccc(C)o4)CC3)cc2)n1,"inconclusive [inhibitor, single point]"
14,O=C(NCc1cccnc1)C1CC(c2ccccc2Cl)=NO1 (stereo not drawn),inactive
15,C(/C=C/c1ccco1)=N/N1CCN(c2ccccc2)CC1,"inconclusive [inhibitor, single point]"
16,Cc1ccc(-c2nc3sc4c(c3c(=O)n2N)CCCC4)cc1,"inconclusive [inhibitor, single point]"
17,O=C1Nc2cc(C(=O)NCCCN3CCCC3)ccc2S/C1=C\c1ccccc1,active: 10 µM
18,CC(=O)c1ccc(N2CCN(S(=O)(=O)c3cc(-c4onc(C)c4C)ccc3C)CC2)cc1,inactive
19,CC1(C)CC(=O)C(C=NC2CC(C)(C)NC(C)(C)C2)=C(O)C1,inactive
20,O=C(NCc1csc2ccc(Cl)cc12)Nc1ccccc1,"inconclusive [inhibitor, single point]"
21,CCCCCc1c(-c2ccccc2F)ncn1CCc1ccccc1OC,"inconclusive [inhibitor, partial curve]"

row,SMILES,Potency
1,CCC(C)NC(C(=O)Nc1ccc(Cl)c([N+](=O)[O-])c1)c1ccccc1 (stereo not drawn),"inconclusive [inhibitor, partial curve, poor fit]"
2,COC(=O)c1c(SC)nc2ccccc2c1OCc1ccc(C)cc1C,"inconclusive [inhibitor, single point]"
3,COc1cc(C(=O)Nc2ccc(Cl)c(-c3nc4ncccc4o3)c2)cc(OC)c1OC,"inconclusive [inhibitor, single point]"
4,COc1ccc(C(=O)Nc2ccc3c(c2)N(C2CCCC2)C(=O)c2ccccc2S3)cc1OC,"inconclusive [inhibitor, partial curve]"
5,CC(CNC(=O)c1ccc(CSc2nc3ccncc3n2Cc2cccc(F)c2)cc1)c1ccccc1 (stereo not drawn),"inconclusive [inhibitor, single point]"
6,CC(Nc1cccc([N+](=O)[O-])c1)C(=O)Nc1ccc(S(=O)(=O)N2CCCC2)cc1 (stereo not drawn),"inconclusive [inhibitor, partial curve, poor fit]"
7,Cc1ccc(C)c(-c2nn(CC(=O)Nc3cc(F)ccc3F)c(=O)c3c2CCCC3)c1,"inconclusive [inhibitor, single point]"
8,O=C(NC(NC(=S)N1CCOCC1)C(Cl)(Cl)Cl)c1ccc(Cl)cc1 (stereo not drawn),"inconclusive [inhibitor, partial curve, poor fit]"
9,COc1ccc(C(=O)N/N=C/c2ccc(OC)c(OS(=O)(=O)c3ccccc3)c2)cc1,"inconclusive [inhibitor, partial curve, poor fit]"
10,Cc1ccc(C)c2[nH]c(=O)c(CN(CCN3CCCC3)C(=O)Nc3ccc(F)cc3)cc12,"inconclusive [inhibitor, single point]"
11,CCOc1cccc(SCc2noc(C(=O)NC(C)C)c2C(=O)O)c1,"inconclusive [inhibitor, single point]"
12,Cc1ccc2nc(SC(C)C(=O)NCc3ccc4c(c3)OCO4)[nH]c2c1 (stereo not drawn),"inconclusive [inhibitor, single point]"
13,O=S(=O)(NCCC1=CCCCC1)c1ccc(F)cc1,"inconclusive [inhibitor, single point]"
14,CC1CCCN(Cc2nc3c(c(=O)n(C)c(=O)n3C)n2Cc2c(F)cccc2Cl)C1 (stereo not drawn),"inconclusive [inhibitor, full curve, poor fit]"
15,COc1cccc(Nc2nc(N)c([N+](=O)[O-])c(NCc3ccco3)n2)c1,"inconclusive [inhibitor, single point]"
16,O=C(C1CCCN(S(=O)(=O)c2ccc(Br)s2)C1)N1CCCCCC1 (stereo not drawn),"inconclusive [inhibitor, partial curve, poor fit]"
17,COc1ccccc1-c1ccc([C@@H]2C[C@H]3[C@H](CON3C)CN2C(=O)c2ccc(-c3ccccc3)cc2)cc1,"inconclusive [inhibitor, partial curve, poor fit]"
18,CC(C)COC(=O)Cn1cnc2ccc(Br)cc2c1=O,"inconclusive [inhibitor, partial curve, poor fit]"
19,Cc1cc(N2CCCCC2)nc(SCc2ccc(C#N)cc2)n1,"inconclusive [inhibitor, partial curve, poor fit]"
20,Cc1ccc(-n2ncc3c2CCCC3NC(=O)CSc2ccccn2)cc1C (stereo not drawn),"inconclusive [inhibitor, single point]"
21,CC1CCN(C(=O)c2ccc(S(=O)(=O)Cc3cc(F)ccc3F)c([N+](=O)[O-])c2)CC1,"inconclusive [inhibitor, partial curve, poor fit]"

row,SMILES,Potency
1,COc1ccccc1C(c1nnnn1Cc1ccccc1)N1CCN(C2CCCC2)CC1 (stereo not drawn),"inconclusive [inhibitor, single point]"
2,CC(C)(C)c1cc(C(=O)N/N=C/c2ccccc2O)n(-c2ccccc2)n1,"inconclusive [inhibitor, full curve, poor fit]"
3,Cc1cccc(OCCn2c(-c3ccco3)nc3ccccc32)c1,"inconclusive [inhibitor, single point]"
4,COc1cc(C2C(C(=O)OC(C)C)=C(C)N=C3SCCC(=O)N32)ccc1OCc1ccccc1 (stereo not drawn),"inconclusive [inhibitor, single point]"
5,C/C(=N\NC(=S)NC(C)C)c1ccccc1,"inconclusive [inhibitor, single point]"
6,Cc1ccc2nc(Nc3ccccc3)cc(C)c2c1,"inconclusive [inhibitor, partial curve, poor fit]"
7,COc1ccc(S(=O)(=O)Nc2ccc3c(c2)C(=O)N([C@H](C)CO)C[C@H](C)[C@@H](CN(C)C(=O)Nc2ccc(C(F)(F)F)cc2)OCCCC[C@H](C)O3)cc1,"inconclusive [inhibitor, partial curve, poor fit]"
8,Clc1ccc(C2Nc3cccc4cccc(c34)N2)c(Cl)c1,"inconclusive [inhibitor, single point]"
9,COc1ccc(CCN2C(=O)N(c3ccc(OC)cc3)C(=O)C2CC(=O)Nc2ccc(OC)cc2)cc1 (stereo not drawn),"inconclusive [inhibitor, full curve, poor fit]"
10,COc1ccc(OC)c(NC(=O)c2c(NCc3ccc(C)o3)sc3c2CCCCC3)c1,inactive
11,COc1cccc(NC(=O)N(Cc2cn(C)c3ccccc23)C2CCCCC2)c1,"inconclusive [inhibitor, single point]"
12,O=C(CCC1CCCN(C(=O)c2ccc3cc[nH]c3c2)C1)NCc1ccc(F)c(F)c1 (stereo not drawn),"inconclusive [inhibitor, single point]"
13,CCOC(=O)C1=CCN(S(=O)(=O)c2ccc(C)cc2)C1c1ccc(CC)cc1 (stereo not drawn),"inconclusive [inhibitor, single point]"
14,Cc1[nH]c2ccc(C(=O)OCCN(C)C)cc2c1C,inactive
15,O=c1oc(-c2ccco2)nc2c1cnn2-c1ccccc1,inactive
16,CCCN1C(=O)/C(=C/c2ccc(N3CCOCC3)cc2)NC1=S,inactive
17,CS(=O)(=O)NCCc1csc2nc(-c3ccccc3)nn12,inactive
18,c1ccc(CN(CCN2CCOCC2)Cc2ccccc2)cc1,"inconclusive [inhibitor, partial curve, poor fit]"
19,COc1ccccc1NC(=O)CSc1nccn1Cc1ccc(F)cc1,"inconclusive [inhibitor, single point]"
20,CNC(=O)c1cn(-c2ccc(Cl)cc2)c(=O)c2ccccc12,inactive
21,COc1cccc(NC(=O)C2CC(=O)N(C)C(=Nc3cccc(F)c3)S2)c1 (stereo not drawn),"inconclusive [inhibitor, single point]"

# Reference: PubChem BioAssay AID624417 (National Center for Advancing Translational Sciences (NCATS), 2012)
